The whole screen tested about 310,000 compounds, of which about 14,000 (4.5%) showed an effect of 50% or more. The effect is printed as a negative number. The list shows a part of the results.
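Further: peak tail current of the secondary pulse compared with the same well before compound.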

human ether-à-go-go-related gene (hERG) potassium channel, sequence (Q12809 whole entry, looked up): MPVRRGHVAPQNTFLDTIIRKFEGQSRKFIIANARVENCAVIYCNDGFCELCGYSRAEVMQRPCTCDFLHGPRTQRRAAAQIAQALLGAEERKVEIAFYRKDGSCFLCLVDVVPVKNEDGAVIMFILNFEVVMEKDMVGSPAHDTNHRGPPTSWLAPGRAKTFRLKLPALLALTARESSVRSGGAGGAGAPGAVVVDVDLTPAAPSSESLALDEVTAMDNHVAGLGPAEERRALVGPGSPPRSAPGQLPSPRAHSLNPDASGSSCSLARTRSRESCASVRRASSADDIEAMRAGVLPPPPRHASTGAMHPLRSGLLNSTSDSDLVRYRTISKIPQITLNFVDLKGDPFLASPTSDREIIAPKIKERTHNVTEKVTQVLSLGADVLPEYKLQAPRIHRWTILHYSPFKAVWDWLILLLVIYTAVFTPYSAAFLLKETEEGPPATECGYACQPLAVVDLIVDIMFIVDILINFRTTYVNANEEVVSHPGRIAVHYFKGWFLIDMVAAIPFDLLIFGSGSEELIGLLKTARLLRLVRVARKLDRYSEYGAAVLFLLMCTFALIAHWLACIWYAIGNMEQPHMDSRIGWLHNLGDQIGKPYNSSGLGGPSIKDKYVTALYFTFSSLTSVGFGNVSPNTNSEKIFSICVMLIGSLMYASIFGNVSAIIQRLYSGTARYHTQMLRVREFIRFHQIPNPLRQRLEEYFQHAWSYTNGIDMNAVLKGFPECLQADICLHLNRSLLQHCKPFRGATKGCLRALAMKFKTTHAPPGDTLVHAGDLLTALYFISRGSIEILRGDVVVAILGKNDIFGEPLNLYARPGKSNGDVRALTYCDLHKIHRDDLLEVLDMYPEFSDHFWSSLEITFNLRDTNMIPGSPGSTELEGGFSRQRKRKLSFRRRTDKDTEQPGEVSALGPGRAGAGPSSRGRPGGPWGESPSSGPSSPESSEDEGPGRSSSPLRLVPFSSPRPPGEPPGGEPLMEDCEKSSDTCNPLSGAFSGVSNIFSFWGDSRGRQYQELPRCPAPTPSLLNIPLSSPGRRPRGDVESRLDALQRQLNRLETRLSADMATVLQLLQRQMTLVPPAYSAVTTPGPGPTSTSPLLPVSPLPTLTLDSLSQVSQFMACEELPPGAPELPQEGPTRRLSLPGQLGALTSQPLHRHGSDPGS

This assay concerns the target human ether-à-go-go-related gene (hERG) potassium channel (human, UniProt Q12809). Kind of assay: primary screen, population patch clamp on CHO cells stably expressing hERG.
Take `COc1ccc2c(ccc[n+]2CC(=O)c2ccccc2)c1.[Br-]`: the “hERG current change (%, negative = inhibition) at 10uM” value was 3.65%. The result for `c1csc(CNc2ncnc3ccc(-c4ccc5c(c4)OCO5)cc23)c1` reads 12.1%. The result for `CC(C)c1ccc(C2/C(=C(/O)c3ccc(F)cc3)C(=O)C(=O)N2CCCN2CCOCC2)cc1` (stereo not drawn) reads 8.03%. With `CN=C(Nc1ccc2c(c1)OCO2)SC1CC(=O)N(c2ccccc2)C1=O` (stereo not drawn), the “hERG current change (%, negative = inhibition) at 10uM” value is reported as -18%.

With `Cc1ccsc1C(=O)N1CCCC(C(=O)c2cc(F)ccc2F)C1` (stereo not drawn), the “hERG current change (%, negative = inhibition) at 10uM” value was -5.4%.

For the compound `O=C(CSc1nnc(Nc2ccccc2)s1)Nc1ccc(S(=O)(=O)N2CCOCC2)cc1`, the “hERG current change (%, negative = inhibition) at 10uM” value turned out to be 9.88%.

Regarding `O=C(NC1=NN(c2ccccc2)CC1)Nc1ccccc1F`, the “hERG current change (%, negative = inhibition) at 10uM” value is -0.489%. The same measure for `O=C1CC2(CCN(C(=O)c3cccc([N+](=O)[O-])c3)CC2)Oc2ccccc21`: -75.7%; for `COc1ccc(CCNC(=O)Cc2ccc3c(c2)OCO3)cc1OC`: 0.152%. The result for `O=C(O)CCC(=O)N1CCOc2ccc(Cl)cc21` reads 2.92%. The same measure for `Cc1ccc(C)c(OC2=NS(=O)(=O)c3ccccc32)c1`: 23.2%; for `CCCC(=O)Nc1nnc(CCN2CCCCC2)s1`: -7.76%. Take `Cc1cc2nnc(SCC(=O)OC(C)C)n2c2ccccc12`: the “hERG current change (%, negative = inhibition) at 10uM” value is -9.89%. The same measure for `COc1ccc(CC(NC(C)=O)C(=O)NC2CCN(S(=O)(=O)c3ccc(NC(C)=O)cc3)CC2)c(OC)c1` (stereo not drawn): -8.5%. The same measure for `COc1cccc(C(=O)NC2CCCC2)c1`: 16.8%; for `CCn1cc(CNC(=O)c2cc(Cl)ccc2OC)c(C)n1`: 14.1%.

With `CCOCCc1nnc(NC(=O)CSc2ccccc2)s1`, the “hERG current change (%, negative = inhibition) at 10uM” value was -17.9%. The result for `CCN(c1ccc(NC(=O)CSc2nnc3nc(C)cc(C)n23)cc1)C(C)C` reads 2.57%; that for `CCc1nc(SCc2ccccn2)[nH]c(=O)c1C`, 15.1%. The result for `COc1ccc(NC(=O)C(=O)N/N=C(\C)CC(=O)Nc2cc(C)ccn2)c(OC)c1` reads 12.3%; that for `CCC(=O)Oc1ccc(C(=O)Nc2ccccc2C(=O)NCC(C)C)cc1`, 15.6%; that for `COCCC(=O)N1CCc2c([nH]c3ccccc23)C1C(C)(C)C` (stereo not drawn), -2.27%.

Turning to `CCOc1cccc(C(=O)Nc2ccc(N3CCCC3)cc2)c1`, the “hERG current change (%, negative = inhibition) at 10uM” value came to 0.251%. In the case of `CCC(C)NC(=O)c1c(N)n(/N=C/c2ccccn2)c2nc3ccccc3nc12` (stereo not drawn), the “hERG current change (%, negative = inhibition) at 10uM” value is -3.06%. The result for `O=C1CC(NNC(=O)c2ccccc2)C(=O)N1` (stereo not drawn) reads 11.5%; that for `C/C(=C\C(=O)C(F)(F)F)Nc1ccc(C(F)(F)F)cc1`, 9.59%; that for `N#Cc1ccc(OCC(=O)Nc2cc(S(=O)(=O)N3CCOCC3)ccc2N2CCOCC2)cc1`, -28.1%. For `COc1ccc(-n2c(N)c(C(=O)NCC3CCCO3)sc2=S)cc1` (stereo not drawn), the “hERG current change (%, negative = inhibition) at 10uM” value is reported as -6%. For `CCC(C)NCC(=O)Nc1ccc(-c2nc3cc(NC(=O)CNC(C)CC)ccc3o2)cc1` (stereo not drawn), the “hERG current change (%, negative = inhibition) at 10uM” value was 7.01%. The same measure for `CCOc1ccc(S(=O)(=O)Nc2cccnc2)cc1`: 11.1%; for `N#Cc1ccsc1NC(=O)COC(=O)c1cc(Br)ccc1O`: -22.2%. The same measure for `Cc1nc2ccccc2c2c1C(=O)N(C1CCCCCCC1)C2=O`: -3.86%. The result for `O=C(NCC1CCCO1)c1cc(C(=O)c2ccc(Cl)cc2Cl)c[nH]1` (stereo not drawn) reads 14.6%; that for `COCCCNC(=O)Cc1ccc(S(=O)(=O)N2CCOCC2)s1`, 11.4%; that for `CC(C)n1ncc(C(N)=O)c1N`, 6.4%. Take `CC(C)(C)SCCNC(=O)CN(c1ccccc1)S(=O)(=O)c1ccc(F)cc1`: the “hERG current change (%, negative = inhibition) at 10uM” value was found to be 3.5%. The result for `Clc1ccccc1-c1nnc2sc(CCc3ccccc3)nn12` reads -28.6%; that for `COc1cccc(COC(=O)CSCC(=O)Nc2cccc(C)c2)c1OC`, 4.49%; that for `COc1ccc(/C=N/NC(=O)c2ccc3ccccc3c2)cc1OS(=O)(=O)c1ccc(NC(C)=O)cc1`, -16%. The same measure for `CCOC(=O)NC(=O)C(=CNc1cccc(OC)c1)C(=O)NC(=O)OCC`: 17.7%. The result for `Cc1c(N(C)S(=O)(=O)c2cc(C(=O)NCC3CCCO3)ccc2Cl)c(=O)n(-c2ccccc2)n1C` (stereo not drawn) reads -1.16%.

On to `O=C(NCCOc1ccccc1)C1CCC(=O)N(CCCN2CCCC2=O)C1` (stereo not drawn), for which the “hERG current change (%, negative = inhibition) at 10uM” value is recorded as 4.84%. Take `CCN1CCC(C(N)=O)CC1`: the “hERG current change (%, negative = inhibition) at 10uM” value came to 7.45%. The result for `COc1ccc(OCCC(=O)c2ccc(OC)cc2)cc1` reads -3.06%; that for `Cc1cc(C)n(C(=O)c2ccc(NC(=O)C3COc4ccccc4O3)cc2)n1` (stereo not drawn), -20.3%; that for `COc1ccccc1CNC(=O)C1CCN(S(=O)(=O)c2ccc3c(c2)C(C)(C)C(=O)N3C)CC1`, -5.33%.

As for `O=C(c1cccs1)N1CCN=C1SCc1cccc(F)c1`, the “hERG current change (%, negative = inhibition) at 10uM” value was 20%. The result for `N#Cc1ccc(NC(=O)CN2C(=O)NC3(CCCCCCC3)C2=O)cc1Cl` reads 13.5%. Take `O=C(NCCN1CCN(c2ccccc2F)CC1)c1cccn2c(=O)c3ccccc3nc12`: the “hERG current change (%, negative = inhibition) at 10uM” value was -71.5%. The same measure for `O=C(Nc1cccc(NC(=O)c2ccc(Cl)cc2)n1)c1ccc(Cl)cc1`: 15.1%; for `C=CCNC(=O)/C(C#N)=C/c1cc(Br)ccc1OC`: 6.26%; for `O=C(CSc1nnc(-c2n[nH]c3ccccc23)n1-c1ccccc1)Nc1ccccc1Cl`: 0.263%. The same measure for `CC(O)CCC(=O)NNC(=S)Nc1ccccc1` (stereo not drawn): 16.4%.

Consider `O=C(COc1ccc(Cl)cc1Cl)NCCCN1CCOCC1`, for which the “hERG current change (%, negative = inhibition) at 10uM” value was -20.5%. Regarding `C#CCNC(=O)C1=C[C@@H](c2cn(C(C)=O)c3ccccc23)C[C@@H](OCc2ccc(CO)cc2)O1`, the “hERG current change (%, negative = inhibition) at 10uM” value was -48.7%. Turning to `Cc1ccc(C(=O)C(C)OC(=O)CCN=C2NS(=O)(=O)c3ccccc32)cc1` (stereo not drawn), the “hERG current change (%, negative = inhibition) at 10uM” value was determined as 6.4%.

In the case of `CCOc1ccc(OCC(=O)Nc2ccc(N3CCCCC3)cc2)cc1`, the “hERG current change (%, negative = inhibition) at 10uM” value is 4.19%.

The values above are taken from publication PMC4336329 (PLoS ONE, 2015).
